Assay results published in the supplement of paper PMC10369915.
This is one part of the list. Rule as the data show it: active = 3.2 or more and inactive = the rest. The signal is at background level for most entries.

What follows are binders tested against SHP2 C-SH2 domain E139D (assay: enrichment score (SH2-bound / input frequency) (ratio); bacterial display of known human phosphotyrosine sites (pTyr-Var adds point mutants) read by sequencing; higher = stronger binding; tyrosines were phosphorylated by kinases first). Details: peptide library: Human pTyr.
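Also: displayed peptides selected on beads carrying the immobilized SH2 domain, with library peptides lacking any tyrosine serving as negative controls.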

Enrichment score, active:
KYKQKPKYQVRWKII [CSF1R_HUMAN_546] 3.54

Enrichment score, inactive:
ENQPHKKYELTGNFS [ABL2_HUMAN_683] 0.791
APSRQDVYGPQPQVR [CTND1_HUMAN_257] 0.875
GGQYGEVYVGVWKKY [ABL2_HUMAN_303] 0.784
GERQLYCYEVVPQQP [CORO7_HUMAN_288] 1.34
KAKQKPKYQVRWKII [CSF1R_HUMAN_546_YA] 3.08
NLQNGPIYARVIQKR [CRK_HUMAN_239] 1.16
GQAPGASYTAANKNK [CYC_HUMAN_49_YA] 1.06
SSSSVVPYLPRLPIL [ABL2_HUMAN_568] 0.73
EENESPHYDDVHEAL [CLIC5_HUMAN_33_YA] 1.13
SQKKEGVYDVPKSQP [DAB1_HUMAN_232] 0.682
NLVPPKCYGGSFAQR [ABL2_HUMAN_718] 1.17
TAEDNLEYVRTLYDF [CRKL_HUMAN_127] 0.726
DAEGHLIYHVGDWLQ [CLK2_HUMAN_153] 0.725
VKGKSDPYHATSGAL [CXA1_HUMAN_247] 0.861
VAAQDEFYRSGWALN [CSK_HUMAN_184] 0.755
GDTRVFLYELLPESP [CORO7_HUMAN_758] 1.22
IPKVKAIYDIERPDL [ABLM1_HUMAN_396] 0.658

Each binder was assayed against SHP2 C-SH2 domain wild-type in the same assay as above. Details: peptide library: Human pTyr.

Enrichment score, inactive:
ENQPHKKYELTGNFS [ABL2_HUMAN_683] 1
APSRQDVYGPQPQVR [CTND1_HUMAN_257] 0.732
GGQYGEVYVGVWKKY [ABL2_HUMAN_303] 0.653
GERQLYCYEVVPQQP [CORO7_HUMAN_288] 1.39
NLQNGPIYARVIQKR [CRK_HUMAN_239] 0.876
GQAPGASYTAANKNK [CYC_HUMAN_49_YA] 0.877
SSSSVVPYLPRLPIL [ABL2_HUMAN_568] 0.636
EENESPHYDDVHEAL [CLIC5_HUMAN_33_YA] 0.8
SQKKEGVYDVPKSQP [DAB1_HUMAN_232] 0.666
NLVPPKCYGGSFAQR [ABL2_HUMAN_718] 1.03
TAEDNLEYVRTLYDF [CRKL_HUMAN_127] 0.926
DAEGHLIYHVGDWLQ [CLK2_HUMAN_153] 0.674
VKGKSDPYHATSGAL [CXA1_HUMAN_247] 0.747
VAAQDEFYRSGWALN [CSK_HUMAN_184] 0.669
GDTRVFLYELLPESP [CORO7_HUMAN_758] 1.25
IPKVKAIYDIERPDL [ABLM1_HUMAN_396] 0.77

Enrichment score, active:
KAKQKPKYQVRWKII [CSF1R_HUMAN_546_YA] 3.32
KYKQKPKYQVRWKII [CSF1R_HUMAN_546] 4.4

What follows are binders tested against SHP2 N-SH2 domain L43F in the same assay as above. Details: peptide library: Human pTyr.

Enrichment score, inactive:
ENQPHKKYELTGNFS [ABL2_HUMAN_683] 0.994
APSRQDVYGPQPQVR [CTND1_HUMAN_257] 0.716
GGQYGEVYVGVWKKY [ABL2_HUMAN_303] 0.793
GERQLYCYEVVPQQP [CORO7_HUMAN_288] 1.16
KAKQKPKYQVRWKII [CSF1R_HUMAN_546_YA] 3.11
NLQNGPIYARVIQKR [CRK_HUMAN_239] 1.23
GQAPGASYTAANKNK [CYC_HUMAN_49_YA] 0.875
SSSSVVPYLPRLPIL [ABL2_HUMAN_568] 0.599
EENESPHYDDVHEAL [CLIC5_HUMAN_33_YA] 0.903
SQKKEGVYDVPKSQP [DAB1_HUMAN_232] 0.747
NLVPPKCYGGSFAQR [ABL2_HUMAN_718] 1.16
TAEDNLEYVRTLYDF [CRKL_HUMAN_127] 0.868
DAEGHLIYHVGDWLQ [CLK2_HUMAN_153] 0.786
VKGKSDPYHATSGAL [CXA1_HUMAN_247] 0.68
VAAQDEFYRSGWALN [CSK_HUMAN_184] 0.795
GDTRVFLYELLPESP [CORO7_HUMAN_758] 1.01
IPKVKAIYDIERPDL [ABLM1_HUMAN_396] 0.899

Enrichment score, active:
KYKQKPKYQVRWKII [CSF1R_HUMAN_546] 6.17

These binders were tested against SHP2 N-SH2 domain T42A in the same assay as above. Details: peptide library: Human pTyr.

Enrichment score, inactive:
ENQPHKKYELTGNFS [ABL2_HUMAN_683] 0.786
APSRQDVYGPQPQVR [CTND1_HUMAN_257] 0.708
GGQYGEVYVGVWKKY [ABL2_HUMAN_303] 0.883
GERQLYCYEVVPQQP [CORO7_HUMAN_288] 1.56
KAKQKPKYQVRWKII [CSF1R_HUMAN_546_YA] 2.93
NLQNGPIYARVIQKR [CRK_HUMAN_239] 1.05
GQAPGASYTAANKNK [CYC_HUMAN_49_YA] 0.863
SSSSVVPYLPRLPIL [ABL2_HUMAN_568] 0.641
EENESPHYDDVHEAL [CLIC5_HUMAN_33_YA] 0.915
SQKKEGVYDVPKSQP [DAB1_HUMAN_232] 0.997
NLVPPKCYGGSFAQR [ABL2_HUMAN_718] 0.942
TAEDNLEYVRTLYDF [CRKL_HUMAN_127] 1.03
KYKQKPKYQVRWKII [CSF1R_HUMAN_546] 3.09
DAEGHLIYHVGDWLQ [CLK2_HUMAN_153] 0.86
VKGKSDPYHATSGAL [CXA1_HUMAN_247] 0.881
VAAQDEFYRSGWALN [CSK_HUMAN_184] 0.644
GDTRVFLYELLPESP [CORO7_HUMAN_758] 1.3
IPKVKAIYDIERPDL [ABLM1_HUMAN_396] 0.991

The binders below were run against SHP2 N-SH2 domain T52S in the same assay as above. Details: peptide library: Human pTyr.

Enrichment score, active:
KAKQKPKYQVRWKII [CSF1R_HUMAN_546_YA] 3.3
KYKQKPKYQVRWKII [CSF1R_HUMAN_546] 3.86

Enrichment score, inactive:
ENQPHKKYELTGNFS [ABL2_HUMAN_683] 1.28
APSRQDVYGPQPQVR [CTND1_HUMAN_257] 0.85
GGQYGEVYVGVWKKY [ABL2_HUMAN_303] 0.761
GERQLYCYEVVPQQP [CORO7_HUMAN_288] 1.45
NLQNGPIYARVIQKR [CRK_HUMAN_239] 1.06
GQAPGASYTAANKNK [CYC_HUMAN_49_YA] 0.957
SSSSVVPYLPRLPIL [ABL2_HUMAN_568] 0.737
EENESPHYDDVHEAL [CLIC5_HUMAN_33_YA] 0.912
SQKKEGVYDVPKSQP [DAB1_HUMAN_232] 0.745
NLVPPKCYGGSFAQR [ABL2_HUMAN_718] 1.3
TAEDNLEYVRTLYDF [CRKL_HUMAN_127] 1.24
DAEGHLIYHVGDWLQ [CLK2_HUMAN_153] 0.771
VKGKSDPYHATSGAL [CXA1_HUMAN_247] 0.887
VAAQDEFYRSGWALN [CSK_HUMAN_184] 0.545
GDTRVFLYELLPESP [CORO7_HUMAN_758] 1.36
IPKVKAIYDIERPDL [ABLM1_HUMAN_396] 0.85

These binders were tested against SHP2 N-SH2 domain wild-type in the same assay as above. Details: peptide library: Human pTyr.

Enrichment score, inactive:
ENQPHKKYELTGNFS [ABL2_HUMAN_683] 1.36
APSRQDVYGPQPQVR [CTND1_HUMAN_257] 0.96
GGQYGEVYVGVWKKY [ABL2_HUMAN_303] 0.86
GERQLYCYEVVPQQP [CORO7_HUMAN_288] 1.59
NLQNGPIYARVIQKR [CRK_HUMAN_239] 1.2
GQAPGASYTAANKNK [CYC_HUMAN_49_YA] 1.08
SSSSVVPYLPRLPIL [ABL2_HUMAN_568] 0.687
EENESPHYDDVHEAL [CLIC5_HUMAN_33_YA] 1.51
SQKKEGVYDVPKSQP [DAB1_HUMAN_232] 0.793
NLVPPKCYGGSFAQR [ABL2_HUMAN_718] 1.18
TAEDNLEYVRTLYDF [CRKL_HUMAN_127] 1.22
DAEGHLIYHVGDWLQ [CLK2_HUMAN_153] 0.77
VKGKSDPYHATSGAL [CXA1_HUMAN_247] 0.843
VAAQDEFYRSGWALN [CSK_HUMAN_184] 0.751
GDTRVFLYELLPESP [CORO7_HUMAN_758] 1.41
IPKVKAIYDIERPDL [ABLM1_HUMAN_396] 0.818

Enrichment score, active:
KAKQKPKYQVRWKII [CSF1R_HUMAN_546_YA] 3.79
KYKQKPKYQVRWKII [CSF1R_HUMAN_546] 5.78
